# Results published in article PMC12969314 (European journal of medicinal chemistry, 2022).
# Like-named read-outs stand apart in the source and are kept apart here.
# Target: σ1 receptor (Homo sapiens, UniProt Q99720)
# Type: binding
# Conditions: for selectivity σ1:D4: ratio, σ1 over D4; for σ1 % inhibition: printed in Ki column, concentration not printed for σ1
# Sequence of UniProt Q99720 (Q99720 whole entry): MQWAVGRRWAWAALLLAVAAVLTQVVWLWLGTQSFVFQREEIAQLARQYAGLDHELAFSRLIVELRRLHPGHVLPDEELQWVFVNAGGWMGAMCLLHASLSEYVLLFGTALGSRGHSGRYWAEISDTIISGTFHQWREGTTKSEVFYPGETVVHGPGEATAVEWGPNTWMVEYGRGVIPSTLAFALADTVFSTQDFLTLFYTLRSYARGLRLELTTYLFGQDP
smiles,measurement,setting,value
"Fc1cc(COC2CCN(Cc3ccc4[nH]ncc4c3)CC2)ccc1Cl [Compound 12b, 5-((4-((4-chloro-3-fluorobenzyl)oxy)piperidin-1-yl)methyl)-1H-indazole]",selectivity σ1:D4,,828
"c1cncc(COC2CCN(Cc3cn4ccccc4n3)CC2)c1 [Compound 17e, 2-((4-(pyridin-3-ylmethoxy)piperidin-1-yl)methyl)imidazo [1,2-a]pyridine]",Ki,,170 nM
"Cc1csc(OC[C@@H]2CN(Cc3cn4ccccc4n3)CCO2)n1 [Compound 17j, (S)-4-(imidazo[1,2-a]pyridin-2-ylmethyl)-2-(((4-methylthiazol-2-yl)oxy)methyl)morpholine]",σ1 % inhibition,,6%; NA
"COc1ccc(CO[C@H]2CCCN(Cc3cccc(C)c3)C2)cc1F [Compound 19h, (S)-3-((3-fluoro-4-methoxybenzyl)oxy)-1-(3-methylbenzyl)piperidine]",σ1 pKi,"[3H]Pentazocine, HEK293 membranes",8.28
same,Ki,"read-out: σ1 Ki, [3H]Pentazocine, HEK293 membranes, triplicate",5.2 nM
"Fc1ccc(COC2CCN(Cc3ccc4[nH]ncc4c3)CC2)cc1F [Compound 12a, 5-((4-((3,4-difluorobenzyl)oxy)piperidin-1-yl)methyl)-1H-indazole]",selectivity σ1:D4,,> 950
"Cc1cccc(CO[C@H]2CCCN(Cc3cn4ccccc4n3)C2)n1 [Compound 17h, (S)-2-((3-((6-methylpyridin-2-yl)methoxy)piperidin-1-yl)methyl)imidazo[1,2-a]pyridine]",σ1 % inhibition,,39%; NA
"Cc1cccc(CO[C@H]2CCCN(Cc3ncc4ccccn34)C2)n1 [Compound 15e, (S)-3-((3-((6-methylpyridin-2-yl)methoxy)piperidin-1-yl)methyl)imidazo[1,5-a]pyridine]",σ1 % inhibition,,15%; NA
